In the supplement of paper PMC12458215:

tested on: HEK293T; assay: plasma membrane surface immunostaining intensity (anti-HA, deep receptor scanning) (arbitrary fluorescence units); higher = higher plasma membrane expression; details: GPCR class: A

Row | Sequence | plasma membrane surface immunostaining intensity
1 | MSPLNQSAEGLPQEASNRSLNATETSEAWDPRTLQALKISLAVVLSVITLATVLSNAFVLTTILLTRKLHTPANYLIGSLATTDLLVSILVMPISIAYTITHTWNFGQILCDIWLSSDITCCTASILHLCVIALDRYWAITDALEYSKRRTAGHAATMIAIVWAISICISIPPLFWRQAKAQEEMSDCLVNTSQISYTIYSTCGAFYIPSVLLIILYGRIYRAARNRILNPPSLYGKRFTTAHLITGSAGSSLCSLNSSLHEGHSHSAGSPLFFNHVKIKLADSALERKRISAARERKATKILGIILGAFIICWLPFFVVSLVLPICRDSCWIHPALFDFFTWLGYLNSLINPIIYTVFNEEFRQAFQKIVPFRKAS [HTR1D] | 922 ± 86
2 | MGNITADNSSMSCTIDHTIHQTLAPVVYVTVLVVGFPANCLSLYFGYLQIKARNELGVYLCNLTVADLFYICSLPFWLQYVLQHDNWSHGDLSCQVCGILLYENIYISVGFLCCISVDRYLAVAHPFRFHQFRTLKAAVGVSVVIWAKELLTSIYFLMHEEVIEDENQHRVCFEHYPIQAWQRAINYYRFLVGFLFPICLLLASYQGILRAVRRSHGTQKSRKDQIQRLVLSTVVIFLACFLPYHVLLLVRSVWEASCDFAKGVFNAYHFSLLLTSFNCVADPVLYCFVSETTHRDLARLRGACLAFLTCSRTGRAREAYPLGAPEASGKSGAQGEEPELLTKLHPAFQTPNSPGSGGFPTGRLA [GPR68] | 6390 ± 120
3 | MGNDSVSYEYGDYSDLSDRPVDCLDGACLAIDPLRVAPLPLYAAIFLVGVPGNAMVAWVAGKVARRRVGATWLLHLAVADLLCCLSLPILAVPIARGGHWPYGAVGCRALPSIILLTMYASVLLLAALSADLCFLALGPAWWSTVQRACGVQVACGAAWTLALLLTVPSAIYRRLHQEHFPARLQCVVDYGGSSSTENAVTAIRFLFGFLGPLVAVASCHSALLCWAARRCRPLGTAIVVGFFVCWAPYHLLGLVLTVAAPNSALLARALRAEPLIVGLALAHSCLNPMLFLYFGRAQLRRSLPAACHWALRESQGQDESVDSKKSTSHDLVSEMEV [C5AR2] | 685 ± 42
4 | MEPLFPASTPSWNASSPGAASGGGDNRTLVGPAPSAGARAVLVPVLYLLVCAAGLGGNTLVIYVVLRFAKMKTVTNIYILNLAVADVLYMLGLPFLATQNAASFWPFGPVLCRLVMTLDGVNQFTSVFCLTVMSVDRYLAVVHPLSSARWRRPRVAKLASAAAWVLSLCMSLPLLVFADVQEGGTCNASWPEPVGLWGAVFIIYTAVLGFFAPLLVICLCYLLIVVKVRAAGVRVGCVRRRSERKVTRMVLVVVLVFAGCWLPFFTVNIVNLAVALPQEPASAGLYFFVVILSYANSCANPVLYGFLSDNFRQSFQKVLCLRKGSGAKDADATEPRPDRIRQQQEATPPAHRAAANGLMQTSKL [SSTR5] | 5420 ± 190
5 | MEEPGAQCAPPPPAGSETWVPQANLSSAPSQNCSAKDYIYQDSISLPWKVLLVMLLALITLATTLSNAFVIATVYRTRKLHTPANYLIASLAVTDLLVSILVMPISTMYTVTGRWTLGQVVCDFWLSSDITCCTASILHLCVIALDRYWAITDAVEYSAKRTPKRAAVMIALVWVFSISISLPPFFWRQAKAEEEVSECVVNTDHILYTVYSTVGAFYFPTLLLIALYGRIYVEARSRILKQTPNRTGKRLTRAQLITDSPGSTSSVTSINSRVPDVPSESGSPVYVNQVKVRVSDALLEKKKLMAARERKATKTLGIILGAFIVCWLPFFIISLVMPICKDACWFHLAIFDFFTWLGYLNSLINPIIYTMSNEDFKQAFHKLIRFKCTS [HTR1B] | 5940 ± 140
6 | MFPNGTASSPSSSPSPSPGSCGEGGGSRGPGAGAADGMEEPGRNASQNGTLSEGQGSAILISFIYSVVCLVGLCGNSMVIYVILRYAKMKTATNIYILNLAIADELLMLSVPFLVTSTLLRHWPFGALLCRLVLSVDAVNMFTSIYCLTVLSVDRYVAVVHPIKAARYRRPTVAKVVNLGVWVLSLLVILPIVVFSRTAANSDGTVACNMLMPEPAQRWLVGFVLYTFLMGFLLPVGAICLCYVLIIAKMRMVALKAGWQQRKRSERKITLMVMMVVMVFVICWMPFYVVQLVNVFAEQDDATVSQLSVILGYANSCANPILYGFLSDNFKRSFQRILCLSWMDNAAEEPVDYYATALKSRAYSVEDFQPENLESGGVFRNGTCTSRITTL [SSTR1] | 803 ± 25
7 | MPFPNCSAPSTVVATAVGVLLGLECGLGLLGNAVALWTFLFRVRVWKPYAVYLLNLALADLLLAACLPFLAAFYLSLQAWHLGRVGCWALHFLLDLSRSVGMAFLAAVALDRYLRVVHPRLKVNLLSPQAALGVSGLVWLLMVALTCPGLLISEAAQNSTRCHSFYSRADGSFSIIWQEALSCLQFVLPFGLIVFCNAGIIRALQKRLREPEKQPKLQRAQALVTLVVVLFALCFLPCFLARVLMHIFQNLGSCRALCAVAHTSDVTGSLTYLHSVLNPVVYCFSSPTFRSSYRRVFHTLRGKGQAAEPPDFNPRDSYS [GPR31] | 268 ± 21
8 | MSLPNSSCLLEDKMCEGNKTTMASPQLMPLVVVLSTICLVTVGLNLLVLYAVRSERKLHTVGNLYIVSLSVADLIVGAVVMPMNILYLLMSKWSLGRPLCLFWLSMDYVASTASIFSVFILCIDRYRSVQQPLRYLKYRTKTRASATILGAWFLSFLWVIPILGWNHFMQQTSVRREDKCETDFYDVTWFKVMTAIINFYLPTLLMLWFYAKIYKAVRQHCQHRELINRSLPSFSEIKLRPENPKGDAKKPGKESPWEVLKRKPKDAGGGSVLKSPSQTPKEMKSPVVFSQEDDREVDKLYCFPLDIVHMQAAAEGSSRDYVAVNRSHGQLKTDEQGLNTHGASEISEDQMLGDSQSFSRTDSDTTTETAPGKGKLRSGSNTGLDYIKFTWKRLRSHSRQYVSGLHMNRERKAAKQLGFIMAAFILCWIPYFIFFMVIAFCKNCCNEHLHMFTIWLGYINSTLNPLIYPLCNENFKKTFKRILHIRS [HRH1] | 6190 ± 100
9 | MELHNLSSPSPSLSSSVLPPSFSPSPSSAPSAFTTVGGSSGGPCHPTSSSLVSAFLAPILALEFVLGLVGNSLALFIFCIHTRPWTSNTVFLVSLVAADFLLISNLPLRVDYYLLHETWRFGAAACKVNLFMLSTNRTASVVFLTAIALNRYLKVVQPHHVLSRASVGAAARVAGGLWVGILLLNGHLLLSTFSGPSCLSYRVGTKPSASLRWHQALYLLEFFLPLALILFAIVSIGLTIRNRGLGGQAGPQRAMRVLAMVVAVYTICFLPSIIFGMASMVAFWLSACRSLDLCTQLFHGSLAFTYLNSVLDPVLYCFSSPNFLHQSRALLGLTRGRQGPVSDESSYQPSRQWRYREASRKAEAIGKLKVQGEVSLEKEGSSQG [OXER1] | 5610 ± 69
10 | MGFNLTLAKLPNNELHGQESHNSGNRSDGPGKNTTLHNEFDTIVLPVLYLIIFVASILLNGLAVWIFFHIRNKTSFIFYLKNIVVADLIMTLTFPFRIVHDAGFGPWYFKFILCRYTSVLFYANMYTSIVFLGLISIDRYLKVVKPFGDSRMYSITFTKVLSVCVWVIMAVLSLPNIILTNGQPTEDNIHDCSKLKSPLGVKWHTAVTYVNSCLFVAVLVILIGCYIAISRYIHKSSRQFISQSSRKRKHNQSIRVVVAVFFTCFLPYHLCRIPFTFSHLDRLLDESAQKILYYCKEITLFLSACNVCLDPIIYFFMCRSFSRRLFKKSNIRTRSESIRSLQSVRRSEVRIYYDYTDV [GPR87] | 296 ± 15
11 | MANSTGLNASEVAGSLGLILAAVVEVGALLGNGALLVVVLRTPGLRDALYLAHLCVVDLLAAASIMPLGLLAAPPPGLGRVRLGPAPCRAARFLSAALLPACTLGVAALGLARYRLIVHPLRPGSRPPPVLVLTAVWAAAGLLGALSLLGTPPAPPPAPARCSVLAGGLGPFRPLWALLAFALPALLLLGAYGGIFVVARRAALRPPRPARGSRLHSDSLDSRLSILPPLRPRLPGGKAALAPALAVGQFAACWLPYGCACLAPAARAAEAEAAVTWVAYSAFAAHPFLYGLLQRPVRLALGRLSRRALPGPVRACTPQAWHPRALLQCLQRPPEGPAVGPSEAPEQTPELAGGRSPAYQGPPESSLS [GPR62] | 549 ± 71
12 | MNSTCIEEQHDLDHYLFPIVYIFVIIVSIPANIGSLCVSFLQAKKESELGIYLFSLSLSDLLYALTLPLWIDYTWNKDNWTFSPALCKGSAFLMYMNFYSSTAFLTCIAVDRYLAVVYPLKFFFLRTRRFALMVSLSIWILETIFNAVMLWEDETVVEYCDAEKSNFTLCYDKYPLEKWQINLNLFRTCTGYAIPLVTILICNRKVYQAVRHNKATENKEKKRIIKLLVSITVTFVLCFTPFHVMLLIRCILEHAVNFEDHSNSGKRTYTMYRITVALTSLNCVADPILYCFVTETGRYDMWNILKFCTGRCNTSQRQRKRILSVSTKDTMELEVLE [GPR65] | 4390 ± 240
13 | MMDVNSSGRPDLYGHLRSFLLPEVGRGLPDLSPDGGADPVAGSWAPHLLSEVTASPAPTWDAPPDNASGCGEQINYGRVEKVVIGSILTLITLLTIAGNCLVVISVCFVKKLRQPSNYLIVSLALADLSVAVAVMPFVSVTDLIGGKWIFGHFFCNVFIAMDVMCCTASIMTLCVISIDRYLGITRPLTYPVRQNGKCMAKMILSVWLLSASITLPPLFGWAQNVNDDKVCLISQDFGYTIYSTAVAFYIPMSVMLFMYYQIYKAARKSAAKHKFPGFPRVEPDSVIALNGIVKLQKEVEECANLSRLLKHERKNISIFKREQKAATTLGIIVGAFTVCWLPFFLLSTARPFICGTSCSCIPLWVERTFLWLGYANSLINPFIYAFFNRDLRTTYRSLLQCQYRNINRKLSAAGMHEALKLAERPERPEFVLRACTRRVLLRPEKRPPVSVWVLQSPDHHNWLADKMLTTVEKKVMIHD [HTR7] | 586 ± 96
14 | MNASAASLNDSQVVVVAAEGAAAAATAAGGPDTGEWGPPAAAALGAGGGANGSLELSSQLSAGPPGLLLPAVNPWDVLLCVSGTVIAGENALVVALIASTPALRTPMFVLVGSLATADLLAGCGLILHFVFQYLVPSETVSLLTVGFLVASFAASVSSLLAITVDRYLSLYNALTYYSRRTLLGVHLLLAATWTVSLGLGLLPVLGWNCLAERAACSVVRPLARSHVALLSAAFFMVFGIMLHLYVRICQVVWRHAHQIALQQHCLAPPHLAATRKGVGTLAVVLGTFGASWLPFAIYCVVGSHEDPAVYTYATLLPATYNSMINPIIYAFRNQEIQRALWLLLCGCFQSKVPFRSRSPSEV [GPR6] | 433 ± 43

same assay, conditions: GPCR class: C

Row | Sequence | plasma membrane surface immunostaining intensity
15 | MARPRRAREPLLVALLPLAWLAQAGLARAAGSVRLAGGLTLGGLFPVHARGAAGRACGQLKKEQGVHRLEAMLYALDRVNADPELLPGVRLGARLLDTCSRDTYALEQALSFVQALIRGRGDGDEVGVRCPGGVPPLRPAPPERVVAVVGASASSVSIMVANVLRLFAIPQISYASTAPELSDSTRYDFFSRVVPPDSYQAQAMVDIVRALGWNYVSTLASEGNYGESGVEAFVQISREAGGVCIAQSIKIPREPKPGEFSKVIRRLMETPNARGIIIFANEDDIRRVLEAARQANLTGHFLWVGSDSWGAKTSPILSLEDVAVGAITILPKRASIDGFDQYFMTRSLENNRRNIWFAEFWEENFNCKLTSSGTQSDDSTRKCTGEERIGRDSTYEQEGKVQFVIDAVYAIAHALHSMHQALCPGHTGLCPAMEPTDGRMLLQYIRAVRFNGSAGTPVMFNENGDAPGRYDIFQYQATNGSASSGGYQAVGQWAETLRLDVEALQWSGDPHEVPSSLCSLPCGPGERKKMVKGVPCCWHCEACDGYRFQVDEFTCEACPGDMRPTPNHTGCRPTPVVRLSWSSPWAAPPLLLAVLGIVATTTVVATFVRYNNTPIVRASGRELSYVLLTGIFLIYAITFLMVAEPGAAVCAARRLFLGLGTTLSYSALLTKTNRIYRIFEQGKRSVTPPPFISPTSQLVITFSLTSLQVVGMIAWLGARPPHSVIDYEEQRTVDPEQARGVLKCDMSDLSLIGCLGYSLLLMVTCTVYAIKARGVPETFNEAKPIGFTMYTTCIIWLAFVPIFFGTAQSAEKIYIQTTTLTVSLSLSASVSLGMLYVPKTYVILFHPEQNVQKRKRSLKATSTVAAPPKGEDAEAHK [GRM6] | 1330 ± 470

± gives the uncertainty stated by the source.
